# Test results from the supplement of paper PMC10498489.
# About 330 (14%) of roughly 2,300 compounds showed activity.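 How the source made its calls: active = median modified Z-score above 1.96; inactive = 1.96 or below.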 The list shows a part of the results, in another mix than the full data.
# Test system: HepG2 Srxn1-GFP reporter cells (+30 nM CDDO-Me)
# Test: Srxn1-GFP intensity median modified Z-score relative to plate median; higher = stronger NRF2 / oxidative stress reporter activation, active = hit call of the paper
# Conditions: 10 µM; exposure time: 24h
# How it was run: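 HepG2 Srxn1-GFP BAC reporter cells (20,000 per well, 96-well plates) were co-exposed to an NRF2 activator at 30 nM and compound at 10 μM (≤0.1% DMSO) for 24 h in three replicate plates. After formaldehyde fixation and Hoechst staining, confocal images were analysed per cell for cytoplasmic GFP, excluding images with under 100 cells. The value is the median over replicates of the per-plate modified Z-score of GFP intensity. Scaling used 1.4826 × median absolute deviation.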
row,SMILES,Srxn1-GFP intensity median modified Z-score
1,C[C@@H]1O[C@@H](O[C@H]2CC[C@]3(C=O)C4CC[C@]5(C)C(c6coc(O)c6)CC[C@]5(O)C4CC[C@]3(O)C2)[C@H](O)[C@H](O)[C@H]1O (stereo partly specified) [euspeclibcmpd1374],active: 7.48
2,CN1CC(C(=O)N[C@]2(C)O[C@@]3(O)C4CCCN4C(=O)C(Cc4ccccc4)N3C2=O)=CC2c3cccc4[nH]cc(c34)CC21 (stereo partly specified) [euspeclibcmpd823],active: 113
3,CC(NC(C)(C)C)C(=O)c1cccc(Cl)c1 (stereo unspecified) [euspeclibcmpd657],inactive: -0.376
4,C=CCSSCC=C [euspeclibcmpd1617],inactive: -0.329
5,O=C1C=CC(=O)c2ccccc21 [euspeclibcmpd1754],active: 32.6
6,O=[N+]([O-])C(Br)(CO)CO [euspeclibcmpd2257],active: 6.25
7,CNc1ccccc1C(=O)O [euspeclibcmpd1568],inactive: -0.451
8,COC(C)CC(=O)Nc1ccc([N+](=O)[O-])c(C(F)(F)F)c1 (stereo unspecified),inactive: 1.79
9,C[C@]12CCC(=O)CC1=CC=C1C2CC[C@@]2(C)C1CC[C@@]2(O)CCC(=O)O (stereo partly specified) [euspeclibcmpd2339],inactive: -0.283
10,COP(=O)(OC)C(O)C(Cl)(Cl)Cl (stereo unspecified) [euspeclibcmpd866],active: 3.07
11,CCSCCC(N)C(=O)O (stereo unspecified) [euspeclibcmpd1757],inactive: -0.7
12,Cc1cccc(C)c1NC(=O)CN1CCCC1=O [euspeclibcmpd1084],inactive: -0.241
13,CC(=O)c1c(O)cc(C)oc1=O [euspeclibcmpd1006],active: 15.5
14,N#Cc1[nH]n(-c2c(Cl)cc(C(F)(F)F)cc2Cl)c(=N)c1[S+]([O-])C(F)(F)F (stereo unspecified) [euspeclibcmpd821],inactive: -0.323
15,S=C=NCc1ccccc1 [euspeclibcmpd1105],active: 100
16,CCN1C[C@@]2(COC)C3[C@@H](OC)[C@H]4[C@@H]1[C@]3(C(OC)C[C@H]2O)C1C[C@@]2(O)[C@H](OC(=O)c3ccccc3)C1[C@]4(OC(C)=O)[C@@H](O)[C@@H]2OC (stereo partly specified) [euspeclibcmpd686],inactive: 0.0544
17,O=c1c2ccccc2[se]n1-c1ccccc1 [euspeclibcmpd2467],inactive: 0.279
18,C[N+]1(C)C2CCC1CC(OC(=O)C(CO)c1ccccc1)C2 (stereo unspecified) [euspeclibcmpd790],inactive: -0.464
19,NCC(O)c1ccc(O)cc1 (stereo unspecified) [euspeclibcmpd1039],inactive: -0.0826
20,COc1cc2c3cc1Oc1c(OC)c(OC)cc4c1[C@@H](Cc1cccc(c1)Oc1ccc(c(O)c1)C[C@@H]3N(C)CC2)N(C)CC4 [euspeclibcmpd1812],active: 2.31
21,O=c1ccc2cc(O[C@@H]3O[C@H](CO)[C@@H](O)[C@H](O)[C@H]3O)c(O)cc2o1 [euspeclibcmpd2096],inactive: -0.413
22,N=c1[nH]c(=N)[nH]c(=NC2CC2)[nH]1 [euspeclibcmpd1229],inactive: -0.282
23,COc1cc2c(cc1OC)C1C(=O)c3ccc4c(c3O[C@@H]1CO2)CC(C(C)C)O4 (stereo partly specified) [euspeclibcmpd1349],active: 54.1
24,COc1cc2c(c(OC)c1OC)-c1ccc(OC)c(=O)cc1[C@@H](NC(C)=O)CC2 [euspeclibcmpd73],active: 13.3

row,SMILES,Srxn1-GFP intensity median modified Z-score
1,CO[C@H]1[C@H](O)[C@@H](O[C@H]2CC[C@]3(C=O)C4CC[C@]5(C)C(c6coc(O)c6)CC[C@]5(O)C4CC[C@@H]3C2)O[C@@H](C)[C@@H]1O (stereo partly specified) [euspeclibcmpd2165],active: 3.39
2,CC[N+]1(C)CCCC(OC(=O)C(O)(c2ccccc2)c2ccccc2)C1 (stereo unspecified) [euspeclibcmpd1115],inactive: 0.0901
3,NC1C[C@H]1c1ccccc1 (stereo partly specified) [euspeclibcmpd300],inactive: 1.01
4,CC[C@H]1C2CC3[C@@H]4N(C)c5ccccc5[C@]45C[C@@H](C2C5O)N3[C@@H]1O (stereo partly specified) [euspeclibcmpd1044],inactive: -0.296
5,N#CC(=Cc1cccc(O)c1)C(=O)O [euspeclibcmpd2014],inactive: 0.195
6,C[N+]1(C)CCc2cc3c(cc2[C@H]1C1OC(=O)c2c1ccc1c2OCO1)OCO3 (stereo partly specified) [euspeclibcmpd1466],active: 2.41
7,O=C(O)CC[N+](=O)[O-] [euspeclibcmpd2092],inactive: -0.221
8,COc1cc2ccc(=O)oc2c2ccoc12 [euspeclibcmpd1485],inactive: -0.312
9,C=CCc1ccc(OC)cc1 [euspeclibcmpd2023],inactive: -0.433
10,O=[N+]([O-])O[C@H]1CO[C@H]2[C@@H]1OC[C@H]2O[N+](=O)[O-] [euspeclibcmpd166],inactive: -0.506
11,O=C1C=C2C=CC3C[C@@]2(O1)[C@H]1CCCCN31 [euspeclibcmpd1211],active: 9.38
12,O=C(CCCN1CCC2(CC1)C(=O)NCN2c1ccccc1)c1ccc(F)cc1 [euspeclibcmpd405],active: 10.2
13,CC(O)(CS(=O)(=O)c1ccc(F)cc1)C(=O)Nc1ccc(C#N)c(C(F)(F)F)c1 (stereo unspecified) [euspeclibcmpd817],inactive: -0.242
14,COc1cc2c(c(OC)c1OC)-c1ccc(=O)c(O)cc1C(NC(C)=O)CC2 (stereo unspecified) [euspeclibcmpd2248],inactive: -0.142
15,CCC1(C2=NCCN2)Cc2ccccc2O1 (stereo unspecified) [euspeclibcmpd1254],inactive: -0.176
16,O=C(O)c1nn(Cc2ccc(Cl)cc2Cl)c2ccccc12 [euspeclibcmpd999],inactive: 0.941
17,COc1ccc2c(c1OC)C(=O)O[C@@H]2[C@H]1c2cc3c(cc2CCN1C)OCO3 [euspeclibcmpd2270],inactive: 0.619
18,Cc1cc(C(C#N)c2ccc(Cl)cc2)c(Cl)cc1NC(=O)c1cc(I)cc(I)c1O (stereo unspecified) [euspeclibcmpd694],active: 9.76
19,O=c1[nH]oc2c1CCNC2 [euspeclibcmpd1005],inactive: -0.162
20,O=C1CCO1 [euspeclibcmpd876],inactive: 0.468
21,O=C1C(Cl)=C(Cl)C(=O)C(Cl)=C1Cl [euspeclibcmpd1739],active: 25.8
22,CS(=N)(=O)CCC(N)C(=O)O (stereo unspecified) [euspeclibcmpd1752],inactive: -0.455
23,COc1ccc(OC)c(C(O)C(C)N)c1 (stereo unspecified) [euspeclibcmpd191],inactive: -0.0407
24,CCCC(C)(COC(N)=O)COC(=O)NC(C)C (stereo unspecified) [euspeclibcmpd46],inactive: 0.166

row,SMILES,Srxn1-GFP intensity median modified Z-score
1,O=C(O)C1[O][Sb]2[O]C(=O)C([O]2)C(C(=O)O)[O][Sb]2[O]C(=O)C1[O]2 (stereo unspecified) [euspeclibcmpd2437],active: 3.34
2,COc1cc(OC)c(OC)cc1C=O [euspeclibcmpd1681],inactive: -0.205
3,C[N+]1(C)CCCC(OC(=O)C(O)(c2ccccc2)c2ccccc2)C1 (stereo unspecified) [euspeclibcmpd182],inactive: 0.227
4,C#CC(C)(O)CC (stereo unspecified) [euspeclibcmpd1276],active: 1.99
5,COc1cc([C@@H]2c3cc4c(cc3[C@H](OC(C)=O)[C@H]3COC(=O)C23)OCO4)cc(OC)c1OC (stereo partly specified) [euspeclibcmpd2106],active: 13.1
6,COc1ccccc1N1CCNCC1 [euspeclibcmpd1760],inactive: -0.162
7,C[C@]12CCC3c4ccc(OC(=O)N(CCCl)CCCl)cc4CCC3C1CC[C@@H]2O (stereo partly specified) [euspeclibcmpd984],active: 2.13
8,O=C(NC(O)C(Cl)(Cl)Cl)NC(O)C(Cl)(Cl)Cl (stereo unspecified) [euspeclibcmpd2304],inactive: 0.189
9,CN1C(=O)CCS(=O)(=O)C1c1ccc(Cl)cc1 (stereo unspecified) [euspeclibcmpd942],inactive: 0.154
10,O=P1(N(CCCl)CCCl)NCCCO1 (stereo unspecified) [euspeclibcmpd2335],inactive: -0.33
11,c1ccc2c(c1)sc1ccccc12 [euspeclibcmpd88],active: 3.54
12,CC(C)CC1C(=O)N2CCC[C@H]2[C@@]2(O)O[C@](NC(=O)C3=CC4c5cccc6[nH]c(Br)c(c56)CC4N(C)C3)(C(C)C)C(=O)N12 (stereo partly specified) [euspeclibcmpd39],active: 23.2
13,COc1cc2c(cc1OC)-c1c(oc3c4c(ccc3c1=O)OC(C(C)C)C4)CO2 (stereo unspecified) [euspeclibcmpd1802],inactive: -0.169
14,COc1ccc(C(CN(C)C)C2(O)CCCCC2)cc1 (stereo unspecified) [euspeclibcmpd2154],inactive: -0.2
15,NCC(=O)c1ccccc1 [euspeclibcmpd1673],active: 3.04
16,C[C@]12CCC3C(CC[C@H]4CC(=O)CC[C@]34C)C1CCC2=O (stereo partly specified) [euspeclibcmpd1450],inactive: -0.253
17,O=c1[nH]c2ccccc2n1C1CCN(CCCC(c2ccc(F)cc2)c2ccc(F)cc2)CC1 [euspeclibcmpd392],inactive: -2.27
18,CCC(C)[C@H]1O[C@]2(C=C[C@@H]1C)C[C@@H]1C[C@@H](C/C=C(\C)[C@@H](OC3C[C@H](OC)C(O[C@H]4C[C@H](OC)[C@@H](O)[C@H](C)O4)[C@H](C)O3)[C@@H](C)/C=C/C=C3\CO[C@@H]4[C@H](O)C(C)=CC(C(=O)O1)[C@]34O)O2 (stereo partly specified) [euspeclibcmpd1285],active: 16.3
19,O=[N+]([O-])O[C@@H]1CO[C@H]2[C@@H]1OC[C@@H]2O [euspeclibcmpd605],active: 3.27
20,CC(=O)Nc1cc([As](=O)(O)O)ccc1O [euspeclibcmpd2446],inactive: 0.0429
21,Cc1cc2c(C(C)C)c(O)c(O)c(C=O)c2c(O)c1-c1c(C)cc2c(C(C)C)c(O)c(O)c(C=O)c2c1O [euspeclibcmpd2093],active: 3.73
22,Cc1cc2c(C(C)C)c(O)c(O)c(C=O)c2c(O)c1-c1c(C)cc2c(C(C)C)c(O)c(O)c(C=O)c2c1O [euspeclibcmpd1471],active: 3.88
23,NCCc1ccccc1 [euspeclibcmpd2078],inactive: 0.0184
